Data reported in PubChem BioAssay AID624417 (National Center for Advancing Translational Sciences (NCATS), 2012).
The campaign covered roughly 410,000 compounds. About 6,400 (1.6%) were called active. This list was built around the results that the source calls inconclusive (neither active nor inactive); the mix of calls is not that of the screen. Calls come from the whole dose curve; as a rule, active = well fitted inhibition curve with a large enough effect; inconclusive = small, poorly fitted or top-dose-only effect; inactive = no such curve, though single readings can be large or run the other way. No potency is given beside an inconclusive call; the fits are too rough.

biological target: Glucagon-like peptide 1 receptor (Homo sapiens) (UniProt P43220); experiment: qHTS of GLP-1 Receptor Inverse Agonists (Inhibition Mode); conditions: HEK293 GLP-1R CRE-luciferase, luminescence, 24 h, GLP-1R form is constitutively active; activity change, negative = inhibition: at 38.3 µM (top of the series) unless noted; note: nearly all actives have a fitted effect of over 55% in size
UniProt P43220, sequence (P43220 whole entry, looked up): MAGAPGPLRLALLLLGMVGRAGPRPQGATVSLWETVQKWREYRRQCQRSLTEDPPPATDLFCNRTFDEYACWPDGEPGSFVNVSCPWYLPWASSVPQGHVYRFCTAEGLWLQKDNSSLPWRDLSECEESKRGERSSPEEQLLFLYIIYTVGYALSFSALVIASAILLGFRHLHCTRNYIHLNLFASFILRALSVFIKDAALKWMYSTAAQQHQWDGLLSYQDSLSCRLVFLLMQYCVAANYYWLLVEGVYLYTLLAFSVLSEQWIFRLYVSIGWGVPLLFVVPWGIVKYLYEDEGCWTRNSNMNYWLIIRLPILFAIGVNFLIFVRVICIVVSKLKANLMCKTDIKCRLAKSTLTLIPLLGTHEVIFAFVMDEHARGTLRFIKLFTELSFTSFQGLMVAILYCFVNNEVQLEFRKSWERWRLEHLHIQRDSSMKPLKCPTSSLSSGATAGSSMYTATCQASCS
How it was run: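 Inverse agonism was detected as reduced cAMP-driven luciferase luminescence after 24 h compound treatment. The cells were HEK293 clones expressing constitutively active human GLP-1R with the reporter. Reporter-only and GPR119 cell lines served as counterscreen controls.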
% is set by controls: 0 for no effect and ±100 for the full control effect; potency is the fitted concentration of half-maximal effect; tags give direction and shape of the fitted curve.

SMILES | Potency | activity change, negative = inhibition
O=C(CCc1nc(-c2ccc(Cl)cc2)no1)NCc1ccccc1CN1CCOCC1 | inconclusive [inhibitor, partial curve, poor fit] | 
COc1ccc2[nH]c3c(=S)nc[nH]c3c2c1 |  | inactive: 111%
CC(=O)Nc1ccc2c(c1)CCc1ccccc1-2 | inconclusive [inhibitor, single point] | 
COc1ccc(N2CCC(CNC(=O)Nc3ccc(Cl)cc3)C2)cc1 (stereo not given) | inconclusive [inhibitor, single point] | 
Nc1c(C(=O)NC2CCCCC2)nsc1C(=O)OCC(=O)NC1CCCCC1 |  | inactive: 2.7%
Cc1cc(N)n2nc(C)c(-c3ccc(Cl)cc3)c2n1 | inconclusive [inhibitor, single point] | 
c1ccc2c(OCCCN3CCCCCC3)cccc2c1 |  | inactive: -13.7%
CSc1cccc(NC(=O)CCCOc2ccc(Cl)cc2C)c1 | inconclusive [inhibitor, single point] | 
CCCNC(=O)c1ccccc1NC(=O)COc1cccc2c1OC(C)(C)C2 | inconclusive [inhibitor, single point] | 
O=C(C1CCN(C2CCN(C/C=C/c3ccccc3)CC2)CC1)N1CCOCC1 | inconclusive [inhibitor, partial curve, poor fit] | 
C#CCSc1nc(=O)c2cccnc2n1-c1ccc(C)cc1 |  | inactive: 78%
Cc1cccc(OCC(=O)N(Cc2cccc(Cl)c2)Cc2ccco2)c1C | inconclusive [inhibitor, single point] | 
Cc1ccsc1CNC(=O)C1(C)CCCN1CC(C)C (stereo not given) | inconclusive [inhibitor, single point] | 
Cc1cc(-c2cc(C(=O)NCc3ccccc3)on2)nc(S(C)(=O)=O)n1 |  | inactive: 42.9%
CC(C)S(=O)(=O)c1oc(-c2ccc(F)cc2)nc1S(=O)(=O)c1ccc(F)cc1 | inconclusive [inhibitor, single point] | 
c1ccc(CN2CCC(Nc3ncnc4sccc34)CC2)cc1 |  | inactive: 14.4%
COc1ccc(-n2c(C)cc(C(=O)CN3C(=O)c4ccccc4C3=O)c2C)cc1 | inconclusive [inhibitor, partial curve] | 
CC(C)(C)C1CCC(C(=O)Nc2cccnc2)CC1 (stereo not given) | inconclusive [inhibitor, partial curve, poor fit] | 
O=C(COC(=O)c1ccccc1Cl)Nc1cccc(S(=O)(=O)N2CCCCC2)c1 | inconclusive [inhibitor, partial curve, poor fit] | 
CCCCCNCC(=O)Nc1cccc(C(=O)Nc2cccc(C(F)(F)F)c2)c1 | active: 6.31 µM | 
COc1ccc(C2c3ccc4ccccc4c3Oc3ncn(CCN(C)C)c(=N)c32)cc1 (stereo not given) | active: 3.98 µM | 
c1ccc(CCNc2ccnc3cc4ccccc4cc23)cc1 | inconclusive [inhibitor, partial curve, poor fit] | 

SMILES | Potency | activity change, negative = inhibition
Cc1ccc(NC(=S)NC2CCCC2)cc1 | inconclusive [inhibitor, single point] | 
COc1ccc(OCC(=O)N2CCc3c([nH]c4ccccc34)C2c2ccccn2)cc1 (stereo not given) | inconclusive [inhibitor, single point] | 
O=C(c1ccc(NS(=O)(=O)c2ccc3c(c2)OCCO3)cc1)N1CCCCC1 |  | inactive: 8.96%
Cc1c(C(=O)N/N=C/c2c(O)ccc3ccccc23)nnn1-c1nonc1N | inconclusive [inhibitor, full curve, poor fit] | 
O=C(Cn1c2ccccc2c2nc3n(c(=O)c21)CCS3)Nc1ccccc1C(F)(F)F |  | inactive: -16.7%
CCOC(=O)C(=O)NNc1ccccc1OC | inconclusive [inhibitor, full curve] | 
CCO[C@H]1OC(C(=O)NCc2nc3ccccc3[nH]2)=C[C@@H](C2CC2)[C@@H]1CCCO | inconclusive [inhibitor, full curve, poor fit] | 
COc1ccc(CNC(=S)Nc2ccc(F)c(Cl)c2)cc1 | inconclusive [inhibitor, partial curve, poor fit] | 
Cc1cccc([C@H]2[C@@H]3C=CC[C@@H](C)[C@@H]3C(=O)N2Cc2ccccc2)c1 | inconclusive [inhibitor, partial curve, poor fit] | 
CCOC(=O)C1=CCC(c2cccc(C)c2)N(S(=O)(=O)c2ccc(C)cc2)C1 (stereo not given) | inconclusive [inhibitor, single point] | 
CN(Cc1ccccc1F)C(=O)COc1ccc(C(=O)c2ccccc2)cc1 | inconclusive [inhibitor, partial curve, poor fit] | 
O=C1c2cccc3cc(Br)cc(c23)C(=O)N1Nc1ccccc1 | inconclusive [inhibitor, partial curve, poor fit] | 
CCOc1ccccc1CNC(=O)C1CCN(C(=O)N2CC(C)Oc3ccc(C)cc32)CC1 (stereo not given) | inconclusive [inhibitor, single point] | 
O=C(NCC(=O)N(Cc1ccccc1)C(C(=O)NC1CCCCC1)c1ccco1)c1ccco1 (stereo not given) | inconclusive [inhibitor, single point] | 
OCCNCCCOc1ccc(Cl)cc1Br |  | inactive: -1.28%
Cc1ccc(NC(=O)Cn2c(=O)nc(-c3ccccc3F)c3cc(Cl)ccc32)c(Br)c1 |  | inactive: 7.34%
COc1ccc(-c2coc3cc(O)ccc3c2=O)cc1OC |  | inactive: 89.5%
COc1ccc(S(=O)(=O)N2CCCCCC2)cc1C(=O)N(C)Cc1ccc(Cl)cc1Cl | inconclusive [inhibitor, partial curve, poor fit] | 
CC(C)(C)C(=O)NC(=S)Nc1ccc(C(F)(F)F)cc1 | inconclusive [inhibitor, partial curve] | 
Cn1c(=O)c2c(nc(CN3CCN(c4cccc(Cl)c4)CC3)n2CCc2ccccc2)n(C)c1=O | inconclusive [inhibitor, partial curve, poor fit] | 
O=C(NCC1CC1)c1ccc(Oc2cc(Cl)cc(Cl)c2)o1 | inconclusive [inhibitor, single point] | 
CC(C)(C)c1ccc(OCC(=O)Nc2c(C(=O)c3ccc(F)cc3)oc3ccccc23)cc1 |  | inactive: 6.1%

SMILES | Potency | activity change, negative = inhibition
CCCCCCCCCOC(=O)C[n+]1csc(CCO)c1C | inconclusive [inhibitor, partial curve, poor fit] | 
Clc1ccc(-c2ccc(/C=N/Nc3cc(N4CCOCC4)nc(N4CCOCC4)n3)o2)cc1 | inconclusive [inhibitor, full curve, poor fit] | 
O=C(NCC(c1ccco1)N1CCc2ccccc2C1)c1ccccc1Cl (stereo not given) | inconclusive [inhibitor, partial curve, poor fit] | 
CC(C)Nc1ncnc2ccc(Br)cc12 | inconclusive [inhibitor, partial curve] | 
COc1ccc(Cl)cc1S(=O)(=O)Oc1ccc(NC(C)=O)cc1 | inconclusive [inhibitor, single point] | 
CCOC(=O)[C@H]1Nc2ccc(Cl)cc2[C@@H]2[C@H]1C1CC(c3ccccc31)N2C(=O)OCc1ccccc1 (stereo not given in full) | inconclusive [inhibitor, single point] | 
CNC(=O)N(O)C1N(/N=C/c2ccc(SC)cc2)C(=S)SC1(C)C (stereo not given) | inconclusive [inhibitor, partial curve, poor fit] | 
COc1cccc(C(=O)N(Cc2cccc(Cl)c2)Cc2ccco2)c1 | inconclusive [inhibitor, single point] | 
COc1cccc(Cn2cnc3c(NS(=O)(=O)c4ccc(Cl)cc4)c(C)c(C)cc32)c1 | inconclusive [inhibitor, partial curve, poor fit] | 
O=C(CSc1nc2ccccc2[nH]1)N1CCN(S(=O)(=O)c2ccc(Cl)cc2)CC1 | inconclusive [inhibitor, full curve, poor fit] | 
O=C(Nc1ncc(Cc2ccc(SC(F)F)cc2)s1)c1ccc(OC(F)F)cc1 | inconclusive [inhibitor, full curve, poor fit] | 
CN(C)CCN(Cc1ccc(Cl)cc1)c1ccccn1 | inconclusive [inhibitor, single point] | 
O=C(c1ccc(CS(=O)c2ccccc2Cl)o1)N1CCN(c2ccccc2F)CC1 (stereo not given) | inconclusive [inhibitor, partial curve, poor fit] | 
COc1ccc(C(=O)c2ccc(Br)cc2)c2ccccc12 | inconclusive [inhibitor, partial curve, poor fit] | 
O=S1(=O)N=C(Nc2cccc(C(F)(F)F)c2)c2ccccc21 | inconclusive [inhibitor, single point] | 
Cc1ccccc1OCC(=O)Nc1ccc(N2CCN(S(C)(=O)=O)CC2)cc1 |  | inactive: 0%
COc1ccccc1-c1c(C)nn2c(C(F)(F)F)cc(-c3ccccc3)nc12 |  | inactive: 12.9%
Cc1ccc(CSCC(=O)Nc2ccccc2C(=O)O)cc1 | inconclusive [inhibitor, full curve, poor fit] | 
CSc1cccc(NC(=O)c2ccc3c(c2)c(C)c(C)n3Cc2ccc(F)cc2)c1 | inconclusive [inhibitor, partial curve] | 
CCC(Sc1nc(C)cc(=O)[nH]1)C(=O)Nc1sc2c(c1C#N)CCCC2 (stereo not given) | inconclusive [inhibitor, single point] | 
O=c1cc(-c2ccccc2)cc(-c2ccccc2)n1CCCO | inconclusive [inhibitor, full curve, poor fit] | 
